Measured values taken from PubChem BioAssay AID1030 (National Center for Advancing Translational Sciences (NCATS), 2008).
Where “and” joins values, the source holds several entries; their conditions need not be identical. Identical values can stand only once. Out of some 220,000 compounds screened, about 16,000 (7.3%) were called active. Inconclusive means that the source gave no clear call. Such entries were picked first, then a sample of the others. Calls follow the shape of the dose curve; as a rule, active = well fitted inhibition curve with a large enough effect (not every such curve was filed as active); inconclusive = small, poorly fitted or top-dose-only effect, or another doubt; inactive = no such curve, though single readings can be large or run the other way. Potencies of inconclusive entries are doubtful fits and often do not repeat.

biological target: Aldehyde dehydrogenase 1A1 (Homo sapiens) (UniProt P00352); assay: qHTS Assay for Inhibitors of Aldehyde Dehydrogenase 1 (ALDH1A1); conditions: Purified ALDH1A1, NADH fluorescence, propionaldehyde substrate; series mostly up to 75.3 µM; activity, negative = inhibition: at the top concentration;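 as to activity, negative = inhibition: plate controls were no enzyme wells and a reference inhibitor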
Chain of UniProt P00352 (P00352 whole entry, looked up): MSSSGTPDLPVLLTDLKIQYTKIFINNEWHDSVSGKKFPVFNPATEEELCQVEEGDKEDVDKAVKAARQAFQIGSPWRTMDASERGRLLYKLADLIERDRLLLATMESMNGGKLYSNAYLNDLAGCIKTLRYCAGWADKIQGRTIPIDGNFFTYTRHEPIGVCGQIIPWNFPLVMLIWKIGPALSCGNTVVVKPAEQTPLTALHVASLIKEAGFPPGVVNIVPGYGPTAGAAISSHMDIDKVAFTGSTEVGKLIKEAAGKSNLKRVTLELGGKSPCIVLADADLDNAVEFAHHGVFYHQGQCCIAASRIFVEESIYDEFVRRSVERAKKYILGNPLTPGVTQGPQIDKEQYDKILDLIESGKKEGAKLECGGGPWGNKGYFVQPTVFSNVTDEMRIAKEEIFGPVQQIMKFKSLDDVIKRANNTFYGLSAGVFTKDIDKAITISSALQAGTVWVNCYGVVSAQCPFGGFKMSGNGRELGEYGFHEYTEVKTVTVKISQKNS
Potency is read from the fitted curve at half-maximal effect; tags tell the direction and shape of the fitted curve.

| Structure (SMILES) | Potency | activity, negative = inhibition |
| --- | --- | --- |
| Cc1[nH]c(=S)c(C#N)c2c1CCCC2 | inconclusive: 8.91 µM [inhibitor, single point] |  |
| O=C(O)c1ccccc1Nc1cccc(C(F)(F)F)c1 | inactive |  |
| Cc1cccc(C)c1NC1=NCCCCS1 |  | inactive: 10.5% |
| COc1cc(C2C(C#N)=C(N)Oc3cc(O)ccc32)cc(OC)c1OC (configuration not stated) | inconclusive: 5.62 µM [inhibitor, partial curve] |  |
| O=C1NC(=O)C(=C/C=C/c2coc3ccc(Br)cc3c2=O)C(=O)N1 | active: 3.16 µM |  |
| Cc1ccnc(-n2c(C)cc(C=C3C(=O)N(C)C(=S)N(C)C3=O)c2C)c1 | inconclusive: 35.5 µM [inhibitor, single point] |  |
| CNc1ccc2oc(C[C@H]3O[C@]4(CC[C@H]3C)O[C@H]([C@H](C)C(=O)c3ccc[nH]3)[C@H](C)C[C@H]4C)nc2c1C(=O)O | inconclusive: 25.1 µM [inhibitor, partial curve] |  |
| O=C(Oc1ccc(Br)cc1C(=S)N1CCCC1)c1ccccc1Cl | inconclusive: 25.1 µM [inhibitor, single point] |  |
| CCOC(=O)c1cc(C)sc1/N=C/C1C(=O)NC(=S)NC1=O | active: 7.08 µM |  |
| NCC(O)c1ccc(O)cc1 (configuration not stated) | inactive |  |
| N=C1c2ccccc2CN1NC(=O)c1ccc(Br)cc1 | inconclusive: 44.7 µM [inhibitor, single point] |  |
| CSCC[C@H](NC(=O)[C@H](Cc1ccccc1)NC(=O)CNC(=O)CNC(=O)[C@@H](N)Cc1ccc(O)cc1)C(=O)O |  | inactive: -0.737% |
| NCC#Cc1ccccc1 |  | inactive: -1.99% |
| COC(=O)C1=Nc2ccccc2/C1=C\c1c(O)n(-c2ccc(Br)cc2)c(=O)[nH]c1=O |  | inactive: 3.54% |
| N#CS.N=C=S.N=C=S.[Cu].[NH2-].[NH2-].[NH2-].[NH2-].c1ccc2ncccc2c1 | active: 3.55 µM |  |
| CC(C)C(CCN1C(=O)c2ccccc2C1=O)c1ccco1 (configuration not stated) | active: 22.4 µM |  |
| Clc1ccc(OCC#CCN2CCOCC2)cc1 | inconclusive: 35.5 µM [inhibitor, single point] |  |
| O=C(Oc1ccccc1)N1CCC2(CCN(Cc3ccccc3)CC2)CC1 | inconclusive: 39.8 µM [inhibitor, single point] |  |
| CC(C)=CCCC1(C)C=Cc2c(O)c3c(c(CC=C(C)C)c2O1)OC12C(=CC4CC1C(C)(C)OC2(C/C=C(/C)C(=O)O)C4=O)C3=O (configuration not stated) |  | inactive: -5.74% |
| [Cl][Pd][Cl].[S-]C1=C2N=CN[C-]2[NH+]=C[N-]1.[S-]c1ncnc2[nH]cnc12 |  | inactive: -11.2% [at 13.5 µM] |
| O=C(COc1ccccc1)N1CCN(C2CCCC2)CC1 |  | inactive: -3.79% |
| N#Cc1ccc(CN2CCCC3(CCN(C(=O)Oc4ccccc4)CC3)C2)cc1 | inconclusive: 3.55 µM [inhibitor, single point] |  |
| O=C(CN1C(=O)C2(OCCO2)c2ccccc21)c1ccc(Cl)cc1 | inconclusive: 39.8 µM [inhibitor, single point] |  |
| COc1ccc(N=C(C)c2c(O)n(C)c(=O)n(C)c2=O)c(OC)c1 |  | inactive: -1.11% |

| Structure (SMILES) | Potency | activity, negative = inhibition |
| --- | --- | --- |
| O=C(CCN1CC2CCC(CC2)C1)c1cccs1 | active: 0.0708 µM |  |
| COc1cc2c(cc1O)C[C@H]1c3c(cc(OC)c(O)c3-2)CCN1C | inconclusive: 31.6 µM [inhibitor, single point] |  |
| CCCCCc1nc2ccccc2c(=O)n1-c1ccccc1[N+](=O)[O-] | inconclusive: 25.1 µM [inhibitor, single point] |  |
| C=C(C)[C@H]1C2C(=O)O[C@H]1[C@H]1OC(=O)[C@@]34O[C@@H]3C[C@]2(O)[C@@]14C | inactive |  |
| CC(C)CCNC(=O)c1c(N)n(Cc2ccc3c(c2)OCO3)c2nc3ccccc3nc12 | inconclusive: 28.2 µM [inhibitor, partial curve] |  |
| CCOc1ccc(N2C(=O)CC(Sc3nc(C)cc(C)n3)C2=O)cc1 (configuration not stated) | inconclusive: 35.5 µM [inhibitor, single point] |  |
| O=C1CN=C(c2cccs2)c2c(sc3c2CCCC3)N1 | inconclusive: 28.2 µM [inhibitor, single point] |  |
| COc1cccc2c1C(=O)c1c(O)c3c(c(O)c1C2=O)C[C@](O)(/C(C)=N\O)C[C@@H]3O[C@H]1C[C@H](N)[C@@H](O)[C@H](C)O1 |  | inactive: -7.82% [at 13.5 µM] |
| O=C(O)c1ccc2c(c1)OCO2 | inconclusive: 20 µM [inhibitor, single point] |  |
| O=c1[nH]sc2cc(F)ccc12 | active: 1.41 µM |  |
| O=C(Nc1ccc(Br)cc1)c1nn(C23CC4CC(CC(C4)C2)C3)cc1Br | inconclusive: 28.2 µM [inhibitor, partial curve] |  |
| O=C1NC(=O)N(c2ccc3c(c2)OCO3)C(=O)/C1=C\c1ccc(-c2ccccc2C(=O)O)o1 |  | inactive: -14.4% |
| CN(C)c1ccc(NC(=O)CN2C(=O)CN=C(c3ccccc3)c3ccccc32)cc1 | inconclusive: 39.8 µM [inhibitor, single point] |  |
| CCOP(=O)(OCC)C1(O)C(=O)Nc2ccccc21 (configuration not stated) |  | inactive: 8.76% |
| O=c1ccc2cc(O[C@H]3O[C@@H](CO)[C@@H](O)[C@@H](O)[C@@H]3O)c(O)cc2o1 | inconclusive: 11.2 µM [inhibitor, partial curve] |  |
| N=Cc1c(O)n(-c2ccc(C34CC5CC(CC(C5)C3)C4)cc2)c(=O)[nH]c1=O | inconclusive: 2.51 µM [inhibitor, full curve, poor fit] |  |
| CC[C@]1(OC(=O)CN)C(=O)OCc2c1cc1n(c2=O)Cc2cc3ccccc3nc2-1 | inconclusive: 4.47 µM [inhibitor, partial curve] |  |
| COc1ccc(C2=NCC(=O)N(CC(=O)NCc3ccco3)c3sc4c(c32)CCCC4)cc1OC |  | inactive: -12.5% |
| COc1ccc(N2C(=O)/C(=C/C=C/c3ccccc3[N+](=O)[O-])C(=O)NC2=S)cc1 | active: 8.91 µM |  |
| COCCCn1c(N)c(C(=O)NCCC(C)C)c2nc3ccccc3nc21 | inconclusive: 25.1 µM [inhibitor, partial curve] |  |
| CCC(=NCc1cccnc1)c1c(O)n(Cc2ccccc2)c(=O)[nH]c1=O | inconclusive: 25.1 µM [inhibitor, single point] |  |
| Clc1ccc(Sc2oc(/C=N/n3cnnc3)cc2Br)cc1 | inconclusive: 39.8 µM [inhibitor, single point] |  |
| COc1ccc(-c2nc3ccccc3n2OC(=O)N(C)C)cc1 |  | inactive: 2.25% |
| Cc1cccc(OCC(=O)N2CCN(Cc3cccnc3)CC2)c1 |  | inactive: -7.99% |

| Structure (SMILES) | Potency | activity, negative = inhibition |
| --- | --- | --- |
| O=C(CCN1CCCCC1)NCC(=O)Nc1ccc(Br)cc1C(=O)c1ccccc1 |  | inactive: 1.09% |
| COC1CCCCC1NCCc1ccccc1 (configuration not stated) | inconclusive: 20 µM [inhibitor, single point] |  |
| CC(C)C[C@H]1C(=O)N2CCCC2[C@]2(O)O[C@](NC(=O)[C@@H]3C=C4c5cccc6[nH]cc(c56)CC4N(C)C3)(C(C)C)C(=O)N12 (some centres not stated) | inconclusive: 28.2 µM [inhibitor, single point] and inconclusive: 31.6 µM [inhibitor, partial curve] and inconclusive: 25.1 µM [inhibitor, partial curve] |  |
| CN(C)S(=O)(=O)c1ccc(C(=O)NNc2nc(-c3ccccc3)c3cc(Br)ccc3n2)cc1 | inconclusive: 37.7 µM [inhibitor, single point] |  |
| c1ccc(N2CCCC3(CCNCC3)C2)nc1 | inconclusive: 35.5 µM [inhibitor, single point] |  |
| O=c1c2ccccc2nc(-c2cccs2)n1-c1ccccc1 | inconclusive: 25.1 µM [inhibitor, partial curve] |  |
| CCOC(=O)C(NS(=O)(=O)c1ccc(C)cc1)(C(F)(F)F)P(=O)(OCC(C)C)OCC(C)C (configuration not stated) | inconclusive: 31.6 µM [inhibitor, partial curve] |  |
| Cc1cc(C=O)c(C)n1CC1CCCO1 (configuration not stated) | inconclusive: 35.5 µM [inhibitor, single point] |  |
| NC(=O)CI | active: 28.2 µM |  |
| O=C(N/N=C/c1c(O)n(Cc2ccccc2)c(=O)[nH]c1=O)c1ccccc1 | inconclusive: 28.2 µM [inhibitor, single point] |  |
| [Cl-].[Cl-].[Hg+2] | active: 0.141 µM |  |
| CN1C(=O)C(=Cc2ccc(N3CCCCC3)o2)C(=O)N(C)C1=S | active: 14.1 µM |  |
| CC1COC2=C1C(=O)C(=O)c1c2ccc2c1CCCC2(C)C (configuration not stated) | active: 10 µM and active: 22.4 µM |  |
| COC1=CCC2([N+](=O)[O-])CN(C)CC1([N+](=O)[O-])C2 (configuration not stated) | inconclusive: 39.8 µM [inhibitor, single point] |  |
| ClCCl | inconclusive: 39.8 µM [inhibitor, single point] |  |
| CCN(CC)C(=O)c1ccc(NC(=O)Cn2nc(C)c3ccccc3c2=O)cc1 | inconclusive: 39.8 µM [inhibitor, single point] |  |
| CC(C)NCC(O)COc1cccc2[nH]ccc12 (configuration not stated) | inactive |  |
| O=[N+]([O-])c1cccc2ccccc12 | inconclusive: 44.7 µM [inhibitor, single point] |  |
| CCCN1CCc2cc(O)cc3c2C1Cc1ccc(O)c(O)c1-3 (configuration not stated) | inactive and inconclusive: 25.1 µM [inhibitor, partial curve] |  |
| S=C=NCc1ccccc1 | active: 2.82 µM |  |
| O=C1N[C@@]2(CN3CCC2CC3)C(=O)N1CN(Cc1ccccc1)c1ccccc1 |  | inactive: 15.3% [at 13.5 µM] |
| Cc1cccc(-n2c(C)nc3ccccc3c2=O)c1C |  | inactive: -3.44% |
| Cc1ccc(C(c2nnnn2Cc2ccccc2)N2CC=C(c3ccc(F)cc3)CC2)cc1 (configuration not stated) | active: 7.94 µM |  |
| CC(=O)c1c(O)c(C)c(O)c(Cc2c(O)c3c(c(C(=O)/C=C\c4ccccc4)c2O)OC(C)(C)C=C3)c1O | active: 22.4 µM |  |
